Test results published in the RNAGym collection of RNA variant scans (doi:10.7554/elife.90254).
Read counts are not given, so values of variants with three or more changes are uncertain.

B1: LINE1-mini (parent)
chain: GGCAGAGCUCAACACAGCGUGGCAAAGUGGCUGUGGCUAGACUGCC

Variants of: B1
Assay: self-cleavage, relative activity (ratio to wild type); higher = more cleavage; in vitro, sequencing; the parent is a self-cleaving ribozyme

Variant	self-cleavage
GGCAGAGCUCAACACAGCGUGGCAGAGUGGCUGAGGCUAGACUGCG	0.06
GGCAGAGCUCAACACAGCGUGGCAACGUGGUCGGGGCUAGACUCCC	0.1
GGCAGAGCUCAACACAGCGUGGCUAAGUGGCUGGGGCUAUACAGAC	0.02
GGCAGAGCUCAACACAGCGUGGCAUAGUGUCUGUGGCUAGAAUGCC	0.08
GGCAGAGCUCAACACAGCGUGGCAGAGUGGCUCUGCCUGGACGGCC	0
GGCAGAGCUCAACACAGCGUGGCAUAGUGGCUGUGGCUAGAAUACC	0.52
GGCAGAGCUCAACACAGCGUGGCAGCUUGGCUGUUGCUAGACAGCC	0.02
GGCAGAGCUCAACACAGCGUGGCACAGUGGCAGUGUAUAGACUGCC	0.03
GGCAGAGCUCAACACAGCGUGGCACACUGGCUGUGGCUAGACCGCC	0.01
GGCAGAGCUCAACACAGCGUGGCAACGUGGUUGUGGCUAGGCUGCC	0.04
GGCAGAGCUCAACACAGCGUGGCAGUGUGGUUGUGGCUAGAUUGCC	0.08
GGCAGAGCUCAACACAGCGUGGCAUGGUGGCAGUGGCUAGACUGCG	0.05
GGCAGAGCUCAACACAGCGUGGCACAGUCGCUGUAGCUAGCCUGGC	0.01
GGCAGAGCUCAACACAGCGUGGCAGAGUGGCUGUGGCUAGACAUCC	0.22
GGCAGAGCUCAACACAGCGUGGCAGAGUGGCUGUGGCCGGACUGCC	0.14
GGCAGAGCUCAACACAGCGUGGCACAGUGGUUGUGCCUAGACUGCC	0.03
GGCAGAGCUCAACACAGCGUGGCAUAGUUGCUGUGGCUAUACUGCC	0.87
GGCAGAGCUCAACACAGCGUGGCUAAGUGGCUGUUGGUAGACUGCC	0.04
GGCAGAGCUCAACACAGCGUGGCACUUUGGCUGUGGCUAGACUGCC	0.36

Variant	self-cleavage
GGCAGAGCUCAACACAGCGUGGCACAGUGGCUGAGGCAAGACUGCC	0.09
GGCAGAGCUCAACACAGCGUGGCUAAGUGGCUGUGGCUAGACUACA	0.06
GGCAGAGCUCAACACAGCGUGGCAGAGUGGCUGUUGCUAGGGUGAC	0.13
GGCAGAGCUCAACACAGCGUGGCUAAGUUGAUGCAGCUAGACAGCC	0.02
GGCAGAGCUCAACACAGCGUGGCAGAGUGGCUGUGGCUGCACUGCC	0.02
GGCAGAGCUCAACACAGCGUGGCAACGUGGGUGUGGCUAGGCUGUC	0.01
GGCAGAGCUCAACACAGCGUGGCAGAGUGGCUGUGGCCAGGCUGCC	0.03
GGCAGAGCUCAACACAGCGUGGCAUAGUGUCUGUUGCUAGACUGCC	0.05
GGCAGAGCUCAACACAGCGUGGCAUAGUGGCUGUGGCUGGAAUGCC	0.04
GGCAGAGCUCAACACAGCGUGGCUAAGUGUCUGUGUCUAGACUGCA	0.07
GGCAGAGCUCAACACAGCGUGGCAGAGUGGCUGCGGCUAGAGUGCC	0.02
GGCAGAGCUCAACACAGCGUGGCAACCUGGCUGUUACUAGACUGCC	0.1
GGCAGAGCUCAACACAGCGUGGCAGAGUGCAUGUCGCUAGGCUGCC	0.01
GGCAGAGCUCAACACAGCGUGGCAUAGUGCCUGUGGGUAGUCUGCC	0.05
GGCAGAGCUCAACACAGCGUGGCACAGUGGCUGCGGCUACACUGCC	0.04
GGCAGAGCUCAACACAGCGUGGCAUAGUCGCUUUGGCUAGACUGCU	0.33
GGCAGAGCUCAACACAGCGUGGCAUAGUGGCUCUGGCUAGACUUCC	0.02
GGCAGAGCUCAACACAGCGUGGCAUUGUGGCUUUGGCUAGACUGCC	0.06
GGCAGAGCUCAACACAGCGUGGCUAAGUGGCUGUGACUAGAUUGCC	0.33

Variant	self-cleavage
GGCAGAGCUCAACACAGCGUGGCAGAGUGGCUGUGGCUAGAUUUCC	0.05
GGCAGAGCUCAACACAGCGUGGCACAAUGGAUGUGGCUAGACUGUC	0.16
GGCAGAGCUCAACACAGCGUGGCAGAGUGGCUGUCGCUAAACUGCC	0.01
GGCAGAGCUCAACACAGCGUGGCAGAGUGGCUGUCGCUAUACUGCC	0.02
GGCAGAGCUCAACACAGCGUGGCAUAGUUGCUGUGGCUAGACUGCA	0.92
GGCAGAGCUCAACACAGCGUGGCAUAGUGACUUUGGCUAGACUUCC	0.04
GGCAGAGCUCAACACAGCGUGGCAUAUUGGCUCUGGCUAGACUGCC	0.08
GGCAGAGCUCAACACAGCGUGGCAUAGUGGCUGUGGGGAGCCUGGC	0.01
GGCAGAGCUCAACACAGCGUGGCAGAGUCGCUGUGGCUCGACUGCC	0.12
GGCAGAGCUCAACACAGCGUGGCAUGGGGGCUGUGGCUAGAAUGCC	0.04
GGCAGAGCUCAACACAGCGUGGCAUAGUGGCUAUGGCUUGACUGCC	0.03
GGCAGAGCUCAACACAGCGUGGCAUAGUGGCUAUGGCUGGACUGCC	0.06
GGCAGAGCUCAACACAGCGUGGCAUGGUCGCUGUGGCUAGACUGCC	0.24
GGCAGAGCUCAACACAGCGUGGCAUAAUGGCUAUGGCUAGACUGCA	0.07
GGCAGAGCUCAACACAGCGUGGCAUAGUGGAUGUGCCUAGACUGCC	0.04
GGCAGAGCUCAACACAGCGUGGCACAGUUGCUGUGGCUAGAAUGCC	0.2
GGCAGAGCUCAACACAGCGUGGCACAGAGGCUGUGGGUAGAAUGCC	0.22
GGCAGAGCUCAACACAGCGUGGCAGAAUGGCUGUGUCUAGUCUGCC	0.03
